{
  "source": "the supplement of paper PMC8728848",
  "test_in_all_cases": "glycan array binding signal (z-score within array); higher = stronger binding",
  "conditions_in_all_cases": "glycan notation: IUPAC condensed, linker removed",
  "key": {"[1]": {"target": "Gal(b1-3)GlcNAc(b1-2)Man(a1-3)[Gal(b1-3)GlcNAc(b1-2)Man(a1-6)]Man(b1-4)GlcNAc(b1-4)[Fuc(a1-6)]GlcNAc", "outline": "(§1)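 The binding signal is a Z-score computed within each array and averaged over linkers. Arrays of the same protein sequence at different concentrations or buffers were also averaged together. Data originate from 3228 arrays in the Consortium for Functional Glycomics database, kept only where the protein sequence was available.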"}, "[2]": {"target": "Gal(b1-3)GlcNAc(b1-2)Man(a1-3)[GlcNAc(b1-4)][Gal(b1-3)GlcNAc(b1-2)Man(a1-6)]Man(b1-4)GlcNAc(b1-4)GlcNAc", "outline": "as §1"}, "[3]": {"target": "Gal(b1-3)GlcNAc(b1-2)[Gal(b1-3)GlcNAc(b1-6)]Man(a1-6)[Gal(b1-3)GlcNAc(b1-2)Man(a1-3)]Man(b1-4)GlcNAc(b1-4)GlcNAc", "outline": "as §1"}, "[4]": {"target": "Gal(b1-3)GlcNAc(b1-3)Gal(b1-3)GlcNAc", "outline": "as §1"}, "[5]": {"target": "Gal(b1-3)GlcNAc(b1-3)Gal(b1-4)Glc", "outline": "as §1"}, "[6]": {"target": "Gal(b1-3)GlcNAc(b1-3)Gal(b1-4)GlcNAc", "outline": "as §1"}, "[7]": {"target": "Gal(b1-3)GlcNAc(b1-3)Gal(b1-4)GlcNAc(b1-2)Man(a1-3)[Gal(b1-3)GlcNAc(b1-3)Gal(b1-4)GlcNAc(b1-2)Man(a1-6)]Man(b1-4)GlcNAc(b1-4)GlcNAc", "outline": "as §1"}, "[8]": {"target": "Gal(b1-3)GlcNAc(b1-3)Gal(b1-4)GlcNAc(b1-2)[Gal(b1-3)GlcNAc(b1-3)Gal(b1-4)GlcNAc(b1-6)]Man(a1-6)[Gal(b1-3)GlcNAc(b1-3)Gal(b1-4)GlcNAc(b1-2)Man(a1-3)]Man(b1-4)GlcNAc(b1-4)[Fuc(a1-6)]GlcNAc", "outline": "as §1"}, "[9]": {"target": "Gal(b1-3)GlcNAc(b1-3)Gal(b1-4)GlcNAc(b1-3)Gal(b1-4)GlcNAc(b1-2)[Gal(b1-3)GlcNAc(b1-3)Gal(b1-4)GlcNAc(b1-3)Gal(b1-4)GlcNAc(b1-6)]Man(a1-6)[Gal(b1-3)GlcNAc(b1-3)Gal(b1-4)GlcNAc(b1-3)Gal(b1-4)GlcNAc(b1-2)Man(a1-3)]Man(b1-4)GlcNAc(b1-4)[Fuc(a1-6)]GlcNAc", "outline": "as §1"}, "[10]": {"target": "Gal(b1-3)GlcNAc(b1-3)Gal(b1-4)GlcNAc(b1-6)[Gal(b1-3)GlcNAc(b1-3)]Gal(b1-4)Glc", "outline": "as §1"}, "[11]": {"target": "Gal(b1-3)GlcNAc(b1-3)Gal(b1-4)[Fuc(a1-3)]GlcNAc", "outline": "as §1"}, "[12]": {"target": "Gal(b1-3)GlcNAc(b1-3)Gal(b1-4)[Fuc(a1-3)]GlcNAc(b1-6)[Gal(b1-3)GlcNAc(b1-3)]Gal(b1-4)Glc", "outline": "as §1"}, "[13]": {"target": "Gal(b1-3)GlcNAc(b1-3)GalNAc", "outline": "as §1"}, "[14]": {"target": "Gal(b1-3)GlcNAc(b1-6)Gal(b1-4)GlcNAc", "outline": "as §1"}, "[15]": {"target": "Gal(b1-3)GlcNAc(b1-6)GalNAc", "outline": "as §1"}, "[16]": {"target": "Gal(b1-3)GlcNAc(b1-6)[Gal(b1-3)]GalNAc", "outline": "as §1"}, "[17]": {"target": "Gal(b1-3)GlcNAc6S", "outline": "as §1"}, "[18]": {"target": "Gal(b1-3)[Fuc(a1-4)]GlcNAc", "outline": "as §1"}, "[19]": {"target": "Gal(b1-3)[Fuc(a1-4)]GlcNAc(b1-2)Man", "outline": "as §1"}, "[20]": {"target": "Gal(b1-3)[Fuc(a1-4)]GlcNAc(b1-2)Man(a1-3)[Gal(b1-3)[Fuc(a1-4)]GlcNAc(b1-2)Man(a1-6)]Man(b1-4)GlcNAc(b1-4)[Fuc(a1-6)]GlcNAc", "outline": "as §1"}, "[21]": {"target": "Gal(b1-3)[Fuc(a1-4)]GlcNAc(b1-3)Gal(b1-3)[Fuc(a1-4)]GlcNAc", "outline": "as §1"}, "[22]": {"target": "Gal(b1-3)[Fuc(a1-4)]GlcNAc(b1-3)Gal(b1-4)[Fuc(a1-3)]GlcNAc", "outline": "as §1"}, "[23]": {"target": "Gal(b1-3)[Fuc(a1-4)]GlcNAc(b1-6)GalNAc", "outline": "as §1"}, "[24]": {"target": "Gal(b1-3)[GlcNAc(b1-6)]GalNAc", "outline": "as §1"}, "[25]": {"target": "Gal(b1-3)[Neu5Ac(a2-6)]GalNAc", "outline": "as §1"}, "[26]": {"target": "Gal(b1-3)[Neu5Ac(a2-6)]GlcNAc(b1-4)Gal(b1-4)Glc", "outline": "as §1"}, "[27]": {"target": "Gal(b1-3)[Neu5Ac(b2-6)]GalNAc", "outline": "as §1"}, "[28]": {"target": "Gal(b1-4)Gal", "outline": "as §1"}, "[29]": {"target": "Gal(b1-4)GalNAc(a1-3)[Fuc(a1-2)]Gal(b1-4)GlcNAc", "outline": "as §1"}, "[30]": {"target": "Gal(b1-4)GalNAc(b1-3)[Fuc(a1-2)]Gal(b1-4)GlcNAc", "outline": "as §1"}, "[31]": {"target": "Gal(b1-4)Glc", "outline": "as §1"}, "[32]": {"target": "Gal(b1-4)Glc6S", "outline": "as §1"}, "[33]": {"target": "Gal(b1-4)GlcNAc", "outline": "as §1"}, "[34]": {"target": "Gal(b1-4)GlcNAc(a1-6)Gal(b1-4)GlcNAc", "outline": "as §1"}, "[35]": {"target": "Gal(b1-4)GlcNAc(b1-2)Man", "outline": "as §1"}, "[36]": {"target": "Gal(b1-4)GlcNAc(b1-2)Man(a1-3)Man(b1-4)GlcNAc(b1-4)GlcNAc", "outline": "as §1"}, "[37]": {"target": "Gal(b1-4)GlcNAc(b1-2)Man(a1-3)[Gal(b1-4)GlcNAc(b1-2)Man(a1-6)]Man(b1-4)GlcNAc(b1-4)GlcNAc", "outline": "as §1"}, "[38]": {"target": "Gal(b1-4)GlcNAc(b1-2)Man(a1-3)[Gal(b1-4)GlcNAc(b1-2)Man(a1-6)]Man(b1-4)GlcNAc(b1-4)[Fuc(a1-6)]GlcNAc", "outline": "as §1"}, "[39]": {"target": "Gal(b1-4)GlcNAc(b1-2)Man(a1-3)[Gal(b1-4)GlcNAc(b1-2)Man(a1-6)][Gal(b1-4)GlcNAc(b1-4)]Man(b1-4)GlcNAc(b1-4)[Fuc(a1-6)]GlcNAc", "outline": "as §1"}, "[40]": {"target": "Gal(b1-4)GlcNAc(b1-2)Man(a1-3)[Gal(b1-4)GlcNAc(b1-2)Man(a1-6)][GlcNAc(b1-4)]Man(b1-4)GlcNAc(b1-4)[Fuc(a1-6)]GlcNAc", "outline": "as §1"}, "[41]": {"target": "Gal(b1-4)GlcNAc(b1-2)Man(a1-3)[GlcNAc(b1-2)Man(a1-6)]Man(b1-4)GlcNAc(b1-4)GlcNAc", "outline": "as §1"}, "[42]": {"target": "Gal(b1-4)GlcNAc(b1-2)Man(a1-3)[GlcNAc(b1-4)][Gal(b1-4)GlcNAc(b1-2)Man(a1-6)]Man(b1-4)GlcNAc(b1-4)GlcNAc", "outline": "as §1"}, "[43]": {"target": "Gal(b1-4)GlcNAc(b1-2)Man(a1-3)[Man(a1-6)]Man(b1-4)GlcNAc(b1-4)GlcNAc", "outline": "as §1"}, "[44]": {"target": "Gal(b1-4)GlcNAc(b1-2)Man(a1-6)Man(b1-4)GlcNAc(b1-4)GlcNAc", "outline": "as §1"}, "[45]": {"target": "Gal(b1-4)GlcNAc(b1-2)Man(a1-6)[GlcNAc(b1-2)Man(a1-3)]Man(b1-4)GlcNAc(b1-4)GlcNAc", "outline": "as §1"}},
  "note": "The list shows a part of the results.",
  "data": [
    {"binder": "EULS2 M2 (Oryza sativa) (protein) MVYCRANPNYAMTARNGAVVLAPANPKDEYQHWIKDMRWSTSIKDEEGYPAFALVNKATGQAIKHSLGQSHPVRLVPYNPEVMDESVLWTESRDVGNGFRCIRMVNNIYLNFDAFHGDKYHGGVRDGTDIVLWKLCEGDSQRWKIQPYYILEQKLISEEDLNSAVDHHHHHH", "values": [
      {"measurement": "glycan array binding signal (z-score)", "setting": "[1]", "result": 0.015},
      {"measurement": "glycan array binding signal (z-score)", "setting": "[2]", "result": -0.347},
      {"measurement": "glycan array binding signal (z-score)", "setting": "[3]", "result": -0.336},
      {"measurement": "glycan array binding signal (z-score)", "setting": "[4]", "result": 0.437},
      {"measurement": "glycan array binding signal (z-score)", "setting": "[5]", "result": -0.574},
      {"measurement": "glycan array binding signal (z-score)", "setting": "[6]", "result": -0.483},
      {"measurement": "glycan array binding signal (z-score)", "setting": "[7]", "result": -0.265},
      {"measurement": "glycan array binding signal (z-score)", "setting": "[8]", "result": 0.657},
      {"measurement": "glycan array binding signal (z-score)", "setting": "[9]", "result": -1.02},
      {"measurement": "glycan array binding signal (z-score)", "setting": "[10]", "result": -0.505},
      {"measurement": "glycan array binding signal (z-score)", "setting": "[11]", "result": -0.526},
      {"measurement": "glycan array binding signal (z-score)", "setting": "[12]", "result": -0.897},
      {"measurement": "glycan array binding signal (z-score)", "setting": "[13]", "result": -0.34},
      {"measurement": "glycan array binding signal (z-score)", "setting": "[14]", "result": 0.228},
      {"measurement": "glycan array binding signal (z-score)", "setting": "[15]", "result": -0.277},
      {"measurement": "glycan array binding signal (z-score)", "setting": "[16]", "result": -0.31},
      {"measurement": "glycan array binding signal (z-score)", "setting": "[17]", "result": -0.282},
      {"measurement": "glycan array binding signal (z-score)", "setting": "[18]", "result": -0.139},
      {"measurement": "glycan array binding signal (z-score)", "setting": "[19]", "result": 0.439},
      {"measurement": "glycan array binding signal (z-score)", "setting": "[20]", "result": 0.253},
      {"measurement": "glycan array binding signal (z-score)", "setting": "[21]", "result": -0.418},
      {"measurement": "glycan array binding signal (z-score)", "setting": "[22]", "result": -0.086},
      {"measurement": "glycan array binding signal (z-score)", "setting": "[23]", "result": -0.451},
      {"measurement": "glycan array binding signal (z-score)", "setting": "[24]", "result": -0.483},
      {"measurement": "glycan array binding signal (z-score)", "setting": "[25]", "result": -0.427},
      {"measurement": "glycan array binding signal (z-score)", "setting": "[26]", "result": -0.167},
      {"measurement": "glycan array binding signal (z-score)", "setting": "[27]", "result": -0.425},
      {"measurement": "glycan array binding signal (z-score)", "setting": "[28]", "result": -0.094},
      {"measurement": "glycan array binding signal (z-score)", "setting": "[29]", "result": -0.48},
      {"measurement": "glycan array binding signal (z-score)", "setting": "[30]", "result": -0.291},
      {"measurement": "glycan array binding signal (z-score)", "setting": "[31]", "result": -0.454},
      {"measurement": "glycan array binding signal (z-score)", "setting": "[32]", "result": 1.14},
      {"measurement": "glycan array binding signal (z-score)", "setting": "[33]", "result": -0.531},
      {"measurement": "glycan array binding signal (z-score)", "setting": "[34]", "result": -0.38},
      {"measurement": "glycan array binding signal (z-score)", "setting": "[35]", "result": -0.43},
      {"measurement": "glycan array binding signal (z-score)", "setting": "[36]", "result": 0.321},
      {"measurement": "glycan array binding signal (z-score)", "setting": "[37]", "result": 0.132},
      {"measurement": "glycan array binding signal (z-score)", "setting": "[38]", "result": -0.102},
      {"measurement": "glycan array binding signal (z-score)", "setting": "[39]", "result": 0.393},
      {"measurement": "glycan array binding signal (z-score)", "setting": "[40]", "result": 0.853},
      {"measurement": "glycan array binding signal (z-score)", "setting": "[41]", "result": -0.355},
      {"measurement": "glycan array binding signal (z-score)", "setting": "[42]", "result": 0.091},
      {"measurement": "glycan array binding signal (z-score)", "setting": "[43]", "result": 0.185},
      {"measurement": "glycan array binding signal (z-score)", "setting": "[44]", "result": -0.754},
      {"measurement": "glycan array binding signal (z-score)", "setting": "[45]", "result": -0.086}
    ]}
  ]
}
